# The source gives no read counts; variants with many changes may rest on few reads.
# B1: LINE1-mini (parent)
# chain: GGCAGAGCUCAACACAGCGUGGCAAAGUGGCUGUGGCUAGACUGCC
# Variants of: B1
# Assay: self-cleavage, relative activity (ratio to wild type); higher = more cleavage; in vitro, sequencing; the parent is a self-cleaving ribozyme
row,Variant,self-cleavage
1,GGCAGAGCGCAACACAGCGUGGCCAAGUGGCAGUGGCUAGACUGCC [U9G A24C U32A],0.02
2,GGCAGAGCGAAACACAGCGUGGCAAAGCGGCUCUGGCUAGACUGCC [U9G C10A U28C G33C],0.02
3,GGCAGAGCGCAACACAGCGUGGCCAAGUGGCUCUGGAUAGACUGCC [U9G A24C G33C C37A],0.01
4,GGCAGAGCGCAACACCGCGUGGCAAAGUGGCUGUGGCUACACUGUC [U9G A16C G40C C45U],0.07
5,GGCAGAGCGGAACACAGUGUGGCAAAGUGGCUGUGGUUAGACUGCC [U9G C10G C18U C37U],0.01
6,GGCAGAGCGAAACACAGCGUGGCAAAGUGGCUGUGGCUAGUCUGCC [U9G C10A A41U],0
7,GGCAGAGCGCAACGCAGCGUGGCAAAGUGGCUGUGGGUAGACUGCC [U9G A14G C37G],0.08
8,GGCAGAGCGAAACACAGCGUGGCAAAGUGGCUGUUGCUAUACUGCC [U9G C10A G35U G40U],0.01
9,GGCAGAGCGCAUCACAGCGUGGCAAAGUGGCUGUCGCUAGACUGCC [U9G A12U G35C],0.01
10,GGCAGAGCGUAACACAGCGGGGCAACGUGGCUGUGGCUAGACUGCC [U9G C10U U20G A26C],0.02
11,GGCAGAGCGCAACGCAGCGUGGCAAAGUGGCGGUUGCUAGACUGCC [U9G A14G U32G G35U],0.08
12,GGCAGAGCGCAAAACAGCGUGGCAAAGUGGCUGGGGCCACACUGCC [U9G C13A U34G U38C G40C],0.03
13,GGCAGAGCGCAACAAAGCGUCGCAAAGUGACGGUGGCUAGACUGCC [U9G C15A G21C G30A U32G],0.04
14,GGCAGAGCGCAGCACAGCGUGGCAAAGUGGCUGUUUCUAGACUGCC [U9G A12G G35U G36U],0.04
15,GGCAGAGCGGAUCACAGCGUGCCAAAGUGGCUGUGGCUAGACUGCC [U9G C10G A12U G22C],0
16,GGCAGAGCGCAACACAGCGUGGCAAGGUGGCUGUGGCUACACCGCC [U9G A26G G40C U43C],0.13
17,GGCAGAGCGCAACAAAGCGUAGCAAAGUGGCUGGGGGUAGACUGCC [U9G C15A G21A U34G C37G],0.05
18,GGCAGAGCGCAGCACAGCGUGGCAAAUUAGCUGUGGCUCGACUGCC [U9G A12G G27U G29A A39C],0
19,GGCAGAGCGCAACACAGCGUGGCCAAGUGGCCGUGGCUAGACUGCA [U9G A24C U32C C46A],0.01

row,Variant,self-cleavage
1,GGCAGAGCGCAACCCAGCGUGGCAAAGUGGCUGUGGCUAUAAUGCC [U9G A14C G40U C42A],0
2,GGCAGAGCGCAAUACAGCGUGGCAAAGUCGCUGUGGCUAUACUGCC [U9G C13U G29C G40U],0.03
3,GGCAGAGCGCAAGUCUGCGUGGCAAAGUGACUGUGGCUAGACUGCC [U9G C13G A14U A16U G30A],0.02
4,GGCAGAGCGCAAAAGAGCGAGGCAAAGUGGCUGUGGCUAGACUGCC [U9G C13A C15G U20A],0.11
5,GGCAGAGCGCAACACUGCGUGGCAAAGUGGCUGUGGCUAGUCUGCC [U9G A16U A41U],0.01
6,GGCAGAGCGCGACACAGCUUGGCUAAGUGGCUCUGGCUAGACUGCC [U9G A11G G19U A24U G33C],0.01
7,GGCAGAGCGCAAUACAGCUUGGCAAAGUGGCUGUGGCUAGACUGCC [U9G C13U G19U],0.04
8,GGCAGAGCGCAAUACAGCCUGGCAAAGUGGCUGUGGCUAGACUGCC [U9G C13U G19C],0.03
9,GGCAGAGCGCUACACAGCGUGGCAAAGUGGCUGUGGCUAGUCUGCC [U9G A11U A41U],0.01
10,GGCAGAGCGUAACACAGCGUGGCAAAGUGGCUGUUGCUAGACUGCC [U9G C10U G35U],0.04
11,GGCAGAGCGCACAACAGCGUGGCAAAGUGCCUGUGGAUAGACUGCC [U9G A12C C13A G30C C37A],0.01
12,GGCAGAGCGCGACACAGCGUGUCAAAGUGGCUGUGGCUAGACUGCC [U9G A11G G22U],0.02
13,GGCAGAGCGCUACACAGCGUUGCAAAGUGGAUGUGGCUAGACUGCC [U9G A11U G21U C31A],0.01
14,GGCAGAGCGCAACACCGCGUGGCAAAGUGGGUGUGGCUAGACUGAC [U9G A16C C31G C45A],0.01
15,GGCAGAGCGCAACACAGCGUGGCAAGGUGGCUUUGGCUAGACUGCC [U9G A26G G33U],0.04
16,GGCAGAGCGCAACACAGCGUGGCAGAGUGGCUGUGGCUAGAAUGCC [U9G A25G C42A],0
17,GGCAGAGCGCAACACGGCGUGACAAAGUGGCUGCGGCCAGACUGCC [U9G A16G G22A U34C U38C],0.04
18,GGCAGAGCGUAACACAGCGUUGCAAAGUGGCUGUGGCUAGACUGCC [U9G C10U G21U],0.06
19,GGCAGAGCGCGACACAGCGUGGCAAAGUGGCUGUGGCUAGACUACC [U9G A11G G44A],0.05

row,Variant,self-cleavage
1,GGCAGAGCGCAACACAGCGUGGCAAAGUGGCUGUGGCUAGGCUGAC [U9G A41G C45A],0.05
2,GGCAGAGCGGAACACAGCGUGACAAUGUGGCUGUGGCUAGACUGCC [U9G C10G G22A A26U],0.01
3,GGCAGAGCGCUACACAGCGUGGCAAAGUGGCUGUGGCUAGACCGCC [U9G A11U U43C],0.01
4,GGCAGAGCGCAACCCAGGGCGGCAAAGUGGCUGUGGUUAGACUGCC [U9G A14C C18G U20C C37U],0.04
5,GGCAGAGCGCAACACCGCGUGGCAAAGUGACCGUGGCUAGACUGCC [U9G A16C G30A U32C],0.03
6,GGCAGAGCGCAACUCAGCGUGGCAAAGUUGCUGUGGCUAGACUGCC [U9G A14U G29U],0.04
7,GGCAGAGCGAAACACAGCGUGGCAAAGUGGCUGUGACUGGACUGCC [U9G C10A G36A A39G],0.03
8,GGCAGAGCGUAUCCCAGCGUGGGCAAGUGGCUGUGGCUAGACUGCC [U9G C10U A12U A14C C23G A24C],0.03
9,GGCAGAGCGCAACACGGUGUGGCAAAGUGGCUGUGGCUUGACUGCC [U9G A16G C18U A39U],0.08
10,GGCAGAGCGCAACACAGCGUGGCAAUGUGGCUGUGGCUAGACUUCC [U9G A26U G44U],0.07
11,GGCAGAGCGCAACACAGCGUGGCAACGUGUCUGUGUCUAGACUGCC [U9G A26C G30U G36U],0.12
12,GGCAGAGCGGAACACAGCGUGGCAAAGUCGCUGUCGCAAGACUGCC [U9G C10G G29C G35C U38A],0.01
13,GGCAGAGCGCAACACUUCGCGGCAAAGUGGCUGCUGCUAGACUGCC [U9G A16U G17U U20C U34C G35U],0.02
14,GGCAGAGCGCAACACAGCGUGGCAACGUGGCUGUGGAUAAACUGCC [U9G A26C C37A G40A],1.07
15,GGCAGAGCGCAAGACAGCGUGGCAAAGUGGCUGUGGCUUGACUGCC [U9G C13G A39U],0.11
16,GGCAGAGCGCAUCACAGCGUGGCAAAGUGGCUGUGGCUAGACUGCU [U9G A12U C46U],0.11
17,GGCAGAGCGCAACUCAGCGUGGCAAAGUGGCCGUGGCUAGACUGCC [U9G A14U U32C],0.04
18,GGCAGAGCGCAACACCACGUGGCCAAGUGGCUGUGGCUAGACUGAC [U9G A16C G17A A24C C45A],0.02
